Measured values taken from PubChem BioAssay AID504706 (National Center for Advancing Translational Sciences (NCATS), 2011).
About 200 (0.062%) of roughly 320,000 compounds were called active. The shares of active, inactive and inconclusive entries below differ from those in the screen. Calls follow the shape of the dose curve; as a rule, active = well fitted activation curve with a large enough effect; inconclusive = small, poorly fitted or top-dose-only effect; inactive = no such curve, though single readings can be large or run the other way. Potencies of inconclusive entries are left out as doubtful fits.

Assay: qHTS assay for re-activators of p53 using a Luc reporter; also: nearly all actives have a fitted effect of over 45% in size; as to activity change, positive = activation: % of control where 0% means no effect
Conditions: H1299 p53-A138V BP100-luciferase reporter, luminescence, 24 h; series mostly up to 92.2 µM; activity change, positive = activation: at the top concentration
Outline: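 H1299 (p53-null), stable ts p53-A138V + BP100-Luc; 1000 cells/well, Opti-MEM/10% FBS; cpd 4 pt, 1:5; 24 h, 37 deg C, 5% CO2; detection reagent 10 min RT; luminescence.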
Potency is read from the fitted curve at half-maximal effect; tags tell the direction and shape of the fitted curve.

SMILES	Potency	activity change, positive = activation
O=C(N=C1SCC(=O)N1c1ccccc1)c1ccco1	inconclusive [activator, partial curve, poor fit]	–
O=C(Nc1cccnc1)/C(N=Nc1c(Cl)cccc1Cl)=C(\O)c1ccccc1	–	inactive: 2.15%
Cc1ccccc1NC(=S)NNC(=O)c1csc2c1CCC(C)C2 (stereo not drawn)	inconclusive [activator, partial curve, poor fit]	–
Cc1cccc(C)c1OCc1cc(C(=O)N2CCN(c3ccccc3)CC2C)no1 (stereo not drawn)	–	inactive: 4.04%
C/C(=N\NC(=O)c1ccc(F)cc1)c1ccccn1	inconclusive [activator, full curve, poor fit]	–
CC(C)(C)c1ccc(O)c(O)c1	inconclusive [activator, partial curve, poor fit]	–
Cc1ccc(S(=O)(=O)N2CCN(S(=O)(=O)c3cccs3)CC2)cc1	inconclusive [activator, partial curve, poor fit]	–
Nc1nonc1-c1noc(N2CCOCC2)n1	inconclusive [activator, single point]	–
COc1ccc(NC(=O)C2CCN(S(=O)(=O)c3cccc4nonc34)CC2)cc1OC	–	inactive: 2.98%
O=C(NNC(=O)c1ccccc1OCc1ccccc1)c1ccccc1O	inconclusive [activator, single point]	–
CCN1CCN(Cc2c(O)ccc3c(=O)c(-c4ccc(OC)c(OC)c4)c(C(F)(F)F)oc23)CC1	inconclusive [activator, partial curve, poor fit]	–
COc1ccc(NC(=O)Nc2cccs2)cc1Cl	inconclusive [activator, partial curve, poor fit]	–
CCCCCn1cnc2sc(CC)cc2c1=O	inconclusive [activator, full curve, poor fit]	–
O=c1oc(-c2ccccc2F)nc2scc(-c3ccccc3)c12	inconclusive [activator, partial curve, poor fit]	–
N#Cc1ccc(CN2CCN(C(=O)CCNS(=O)(=O)c3ccc(F)c(F)c3)CC2)cc1	inconclusive [activator, single point]	–
O=C(/C=C/c1ccccc1)NC(=S)Nc1ccccc1O	inconclusive [activator, full curve, poor fit]	–
CSc1cccc(-n2cc(-c3ccc4c(c3)OCO4)[nH]c2=O)c1	inconclusive [activator, partial curve, poor fit]	–
C=CC[C@@H](Cc1ccc(F)cc1)C(=O)OC[C@H]1CCCN1C(=O)[C@H](CC=C)CC(=O)N[C@H](CO)Cc1ccccc1	–	inactive: -12.2%
